# Source: PubChem BioAssay AID1468 (National Center for Advancing Translational Sciences (NCATS), 2008)
# Where “and” joins values, the source holds several entries; their conditions need not be identical. Identical values can stand only once. Hit rate of the full screen: of about 280,000 compounds, about 1,100 (0.39%) were called active. The inconclusive results got no clear call from the source; some entries with a clear call stand among them for comparison. The call rests on the fitted dose curve; in most records, active means well fitted inhibition curve with a large enough effect; inconclusive means small, poorly fitted or top-dose-only effect, or effect the other way; inactive means flat fitted curve, though single readings scatter. A potency beside an inconclusive call is a rough fit, not a confirmed value.
# Target: Microtubule-associated protein tau (Homo sapiens) (UniProt P10636)
# Test: qHTS for Inhibitors of Tau Fibril Formation, Fluorescence Polarization; further: nearly all actives have a fitted effect of over 55% in size
# Settings: K18 P301L tau heparin fibrillization, Alexa594 FP, 6 h; series mostly up to 57.7 µM; activity, negative = inhibition: at the top concentration
# Procedure, shortened: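 Human tau K18 […] P301L fragment, 15 uM unlabeled plus 0.24 uM Alexa 594-labeled tau (final), with compound and 20 uM heparin in 100 mM sodium acetate pH 7; 6 hr at 37 C, then Alexa 594 FP read.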
# On the % scale 0 is the no-effect control and ±100 the full control effect; potency means the concentration at half of the fitted maximal effect; tags describe the fitted curve by direction and shape.
# Chain of UniProt P10636 (P10636 whole entry, looked up): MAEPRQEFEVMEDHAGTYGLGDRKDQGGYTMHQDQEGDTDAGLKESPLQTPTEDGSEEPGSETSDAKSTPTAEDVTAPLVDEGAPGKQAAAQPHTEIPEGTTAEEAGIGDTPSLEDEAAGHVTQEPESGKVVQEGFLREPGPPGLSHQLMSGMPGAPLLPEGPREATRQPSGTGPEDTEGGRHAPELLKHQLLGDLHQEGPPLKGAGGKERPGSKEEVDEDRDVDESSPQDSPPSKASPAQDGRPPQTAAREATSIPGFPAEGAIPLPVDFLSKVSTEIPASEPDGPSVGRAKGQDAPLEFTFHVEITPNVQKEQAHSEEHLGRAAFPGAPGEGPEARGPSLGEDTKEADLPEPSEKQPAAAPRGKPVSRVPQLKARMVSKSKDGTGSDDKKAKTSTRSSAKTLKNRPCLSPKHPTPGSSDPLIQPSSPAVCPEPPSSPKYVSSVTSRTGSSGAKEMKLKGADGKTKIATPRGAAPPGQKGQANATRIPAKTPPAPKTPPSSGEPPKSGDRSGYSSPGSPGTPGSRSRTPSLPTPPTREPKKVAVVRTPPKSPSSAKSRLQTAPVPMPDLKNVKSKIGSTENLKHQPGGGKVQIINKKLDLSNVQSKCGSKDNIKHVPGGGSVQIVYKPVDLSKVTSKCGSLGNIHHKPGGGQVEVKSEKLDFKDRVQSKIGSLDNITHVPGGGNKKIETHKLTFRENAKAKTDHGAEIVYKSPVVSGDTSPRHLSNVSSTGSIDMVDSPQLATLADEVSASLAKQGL
SMILES,"activity, negative = inhibition",Potency
Cc1ccc(CNC(=O)CC2Oc3ccccc3NC2=O)cc1 (stereo not drawn),inactive: -4.05%,
CCc1ccc(OCC(=O)NC(=S)Nc2cccc(CO)c2)c(Br)c1,,"inconclusive: 14.1 µM [inhibitor, partial curve]"
O=c1nc(/C=C/c2cc([N+](=O)[O-])ccc2Cl)cc(C(F)(F)F)[nH]1,inactive: -1.87%,
O=C(NCCc1nnc2ccc(NCc3ccc(F)cc3)nn12)c1ccccc1,inactive: -1.23%,
CCCCCCN(CCCCCC)C(=O)Cc1c(-c2ccc(F)cc2)[nH]c2ccccc12,,"inconclusive: 2.51 µM [activator, single point]"
Nc1nc(SCC(=O)N2CCc3ccccc3C2)[nH]c(=O)c1-c1ccccc1,inactive: -2.11%,
C=CCN(CC=C)S(=O)(=O)c1ccc(NC(=S)NC(=O)c2ccc(-c3ccccc3)cc2)cc1,,"inconclusive: 44.7 µM [inhibitor, single point]"
Cc1cc(=O)c2c(O)c3c(O)cc(O)c4c5c(O)cc(O)c6c(O)c7c(=O)cc(C)c8c1c2c(c34)c(c65)c78,,"inconclusive: 39.8 µM [inhibitor, single point] and inconclusive: 17.8 µM [inhibitor, partial curve, poor fit]"
COc1cccc(CNc2cccc3cccnc23)c1O,,"inconclusive: 39.8 µM [inhibitor, single point]"
COC(=O)c1ccc(NC(=O)CSc2nc(=O)n(Cc3ccco3)c3c2CCC3)cc1,inactive: 5.05%,
CN(C)c1ccc(N=Nc2ccccc2C(=O)OCC(=O)NCC2CCCCC2)cc1,,"inconclusive: 6.31 µM [activator, partial curve]"
O=C(NNC(=S)NC(=O)c1ccccc1[N+](=O)[O-])c1ccccc1,inactive: -0.583%,
CC(C)CN1CCc2nc(-c3ccccc3)c3c(c2CC1)COC(C)C3 (stereo not drawn),inactive: -5.56% [at 11.6 µM],
Cc1c(/C=N\NC(=O)C2COc3ccc(C(C)(C)C)cc3O2)c2ccccc2n1C (stereo not drawn),,"inconclusive: 10 µM [activator, partial curve, poor fit]"
CCN1/C(=C/c2ccc3cc(C)ccc3[n+]2CC)Sc2cc(C)c(C)cc21,,"inconclusive: 39.8 µM [inhibitor, single point]"
Cc1ccc(NC(=O)CSc2ccccc2NC(=O)c2ccccc2Cl)cc1Cl,,"inconclusive: 25.1 µM [inhibitor, partial curve]"
O=C(NCCc1ccc(Cl)cc1)c1cccnc1,,"inconclusive: 7.94 µM [inhibitor, single point]"
COC(=O)C(C)Oc1ccc(-c2nccc(-c3cccs3)n2)cc1 (stereo not drawn),,"inconclusive: 10 µM [inhibitor, partial curve]"
